This list was built around the results that the source calls inconclusive (neither active nor inactive); the mix of calls is not that of the screen. A potency beside an inconclusive call is a rough fit, not a confirmed value. Calls of active or inactive are those of the source. The call rests on the fitted dose curve; in most records, active means well fitted cell-killing curve with a large enough effect; inconclusive means small, poorly fitted or top-dose-only effect, or effect the other way; inactive means flat fitted curve, though single readings scatter. Numbered stars: 1 amine (or outer) side, 2 acyl side, 3 side chain; on linkers, the order of the positions; unused ones are H or OH. Square brackets hold non-standard residues; d marks the D form. Peptide text beside a SMILES is read from it. X9 = O=C([C@@H](CC(O)CCl)O[*:1])[*:2]; aIle = CC[C@@H](C)[C@H](N)C(=O)O; NMeV = CN[C@H](C(=O)O)C(C)C; NMeA = CN[C@@H](C)C(=O)O; βAla = NCCC(=O)O
tested on: OV90; test: Primary qHTS to identify gynecologic anti-cancer compounds using libraries of approved drugs and bioactive compounds (AID 1345084); details: Gynecologic cancer cell panel viability, ATPlite luminescence, 48 h; series mostly up to 57.5 µM; further: nearly all actives have a fitted effect of over 55% in size
Description: National Center for Advancing Translational Sciences [NCATS] Assay Overview: Chemotherapeutic drug responses vary from cancer to cancer and from patient to patient. These variations could be caused by a number of factors including patient genomic background, tumor mutations, tumor heterogeneity, and aspects of drug treatment. Chemotherapeutic drug resistance is also a common issue and can lead to ineffective treatment and patient death. Here we have profiled the cell killing effects of thousands of compounds to characterize the responses in three gynecological cancers, identify cancer-selective compounds, and understand the diversity of responses to these compounds from pan-cancer suppressors to single cell line selective compounds. In this assay, we screened a 7,914 compound drug library that included approved drug and bioactive compounds in six ovarian, three cervical, and […] placental cancer cell lines using the ATPlite assay for cell viability. […] The cervical cancer cell lines included HeLa, Ca Ski, and C-33 A. The placental cancer cell lines included JEG-3. HEK 293T cells were used as the control cell line to determine the selectivity index. ATPlite is a luminescence based assay reliant on the conversion of a luciferase substrate to light in the presence of ATP. As a cytotoxic compound will suppress growth and decrease the number of cells, the concentration of ATP will decrease, and less light signal will be detected in the well.
Assay Protocol Summary: 1,000 cells in 4 uL of media were dispensed into white, solid bottom 1536-well plates using a Multidrop Combi (Thermo Scientific). The Assay plates were incubated for 16 hours at 37 C with 5% CO2 in assay plates, followed by the addition of 23 nL of DMSO or drug dissolved in DMSO. Each compound was assayed in five concentrations (0.092, 0.46, 2.3, 11.5, and 57.5 uM), using the automated Wako 1536 Pin Tool workstation and incubated at 37 C with 5% CO2 48 hours. 4 uL of ATPlite, the ATP monitoring reagent, was then added to the each well of the assay plates using the Multidrop Combi reagent dispenser followed by incubation for 15 minutes at room temperature. The resulting luminescence was measured using the ViewLux plate reader.
Potency means the concentration at half of the fitted maximal effect; tags describe the fitted curve by direction and shape.

| Compound | Potency |
| --- | --- |
| CC(=O)OC1(c2ccccc2)CCN(CCc2ccccc2)CC1 | inconclusive: 10 µM [cytotoxic, full curve, poor fit] |
| Cc1sc2c(c1C)C(c1ccc(Cl)cc1)=N[C@@H](CC(=O)Nc1ccc(O)cc1)c1nnc(C)n1-2 | inconclusive: 2.82 µM [cytotoxic, partial curve] |
| Nc1ccc(N)cc1 | inactive |
| CC1(C)CC/C(=C/c2ccc(Cl)cc2)C1(O)Cn1cncn1 (stereo not given) | inconclusive: 63.1 µM [cytotoxic, single point] |
| CC(=O)O[C@H]1C[C@@H](C)O[C@H]2O[C@@H]3CC4CC[C@@H]5C(CC[C@]6(C)[C@@H](C7=CC(=O)OC7)CC[C@]56O)[C@@]4(C=O)C[C@H]3O[C@]21O (stereo not given in full) | active: 0.562 µM |
| CC(NC(C)(C)C)C(=O)c1cccc(Cl)c1 (stereo not given) | inactive |
| C/C=C(/C)C(=O)O[C@H]1[C@@H]2[C@H](C)C(=O)O[C@@H]2C[C@@H](C)[C@@H]2C=CC(=O)[C@]21C | inconclusive: 12.6 µM [cytotoxic, single point] |
| C[C@]12CC[C@@H](O)C[C@H]1CC[C@@H]1[C@@H]2CC[C@]2(C)C(=O)CC[C@@H]12 | inactive |
| Cc1ccc(Cn2nc(C(=O)N[C@@H]3C(C)(C)[C@@H]4CC[C@@]3(C)C4)cc2-c2ccc(Cl)c(C)c2)cc1 | inactive |
| C[C@H]1[C@@H]2Cc3ccc(O)cc3[C@@]1(C)CCN2C | inconclusive: 112 µM [cytotoxic, single point] |
| COC(=O)[C@]12CCCC(C)(C)C1CCc1cc(C(C)C)c(O)c(O)c12 (stereo not given in full) | inactive |
| CCNC(=O)C[C@@H]1N=C(c2ccc(Cl)cc2)c2cc(OC)ccc2-n2c(C)nnc21 | inconclusive: 3.16 µM [cytotoxic, single point] |
| C=C(CO)[C@@]12O[C@@H]1[C@@]1(C)C(=CC2=O)CC[C@@H](O)[C@@H]1C | inconclusive: 28.2 µM [cytotoxic, single point] |
| COC1C(O)C(C)OC(OC2C(CO)O[C@@H](O[C@@H]3CC4CCC5C(CC[C@]6(C)[C@@H](C7=CC(=O)OC7)CC[C@]56O)[C@@]4(C)[C@H](O)C3)C(O)C2O)C1O (stereo not given in full) | active: 4.47 µM |
| CN1C(=O)c2ccccc2NC(=O)C1Cc1ccccc1 (stereo not given) | inactive |
| COC1CC(OC2CCC3(C=O)C(CCC4C3CCC3(C)C(C5=CC(=O)OC5)CCC43O)C2)OC(C)C1OC1OC(CO)C(O)C(O)C1O (stereo not given) | active: 0.891 µM |
| CC1N=C(N)OC1c1ccccc1 (stereo not given) | inconclusive: 70.8 µM [cytotoxic, single point] |
| COc1ccc2c(c1OC)CN1CCc3cc4c(cc3C1C2)OCO4 (stereo not given) | inconclusive: 31.6 µM [cytotoxic, single point] |
| COC1CC(O[C@H]2CC[C@@]3(C)C(CCC4C3CC[C@]3(C)C(C5=CC(=O)OC5)CCC43O)C2)OC(C)C1OC1OC(COC2OC(CO)C(O)C(O)C2O)C(O)C(O)C1O (stereo not given in full) | inconclusive: 11.2 µM [cytotoxic, single point] |
| O=c1[nH]c2ccc(Cl)cc2c(N[C@@H]2CN3CCC2CC3)c1-c1nc2ccccc2[nH]1 | active: 5.01 µM |

| Compound | Potency |
| --- | --- |
| CC(C)[C@H]1OC(=O)[C@H](Cc2ccccc2)N(C)C(=O)[C@@H](C(C)C)OC(=O)[C@H](Cc2ccccc2)N(C)C(=O)[C@@H](C(C)C)OC(=O)[C@H](Cc2ccccc2)N(C)C1=O | inactive |
| Cc1[nH]nc2ccc(-c3cncc(OC[C@@H](N)Cc4c[nH]c5ccccc45)c3)cc12 | active: 5.62 µM |
| C[C@@]1(CO)[C@H](O)CC[C@@]2(C)[C@H]1CC[C@H]1C[C@@H]3C[C@@]12CC[C@]3(O)CO | inconclusive: 7.08 µM [cytotoxic, partial curve, poor fit] |
| CC(C)[C@]12O[C@H]1[C@@H]1O[C@]13[C@]1(O[C@H]1C[C@H]1C4=C(CC[C@@]13C)C(=O)OC4)[C@@H]2O | inconclusive: 0.282 µM [cytotoxic, full curve, poor fit] |
| CC1=CC(=O)[C@@H](O)[C@]2(C)C3[C@@H](O)[C@@H]4OC(=O)[C@@H]([C@H]4C)[C@]3(C)C(=O)C[C@@H]12 (stereo not given in full) | inconclusive: 12.6 µM [cytotoxic, partial curve, poor fit] |
| CC[C@@H](C)[C@@H]1NC(=O)[C@@H]2CCCN2C(=O)[C@@H](CC(O)CCl)OC(=O)CCNC(=O)[C@H](C)N(C)C(=O)[C@H](C(C)C)N(C)C1=O (stereo not given in full) (cyclo([NMeA][βAla][X9]P[aIle][NMeV])) | active: 0.447 µM |
| CO/C1=C\C(C)=C\[C@@H](C)[C@@H](O)[C@@H](C)C/C(C)=C/C=C/[C@H](OC)[C@@H]([C@@H](C)[C@@H](O)[C@H](C)[C@@]2(O)C[C@@H](O)[C@H](C)[C@@H](C(C)C)O2)OC1=O | active: 0.0891 µM |
| CN1C2CCC(C)(C)C1CC(OC(=O)C(O)(c1cccs1)c1cccs1)C2 (stereo not given) | inconclusive: 31.6 µM [cytotoxic, partial curve, poor fit] |
| CN(C)C(=S)SSC(=S)N(C)C | inconclusive: 12.6 µM [cytotoxic, partial curve, poor fit] |
| CCN(CC)C(=O)[C@@H]1C=C2c3cccc4[nH]cc(c34)C[C@H]2N(C)C1 | inconclusive: 100 µM [cytotoxic, single point] |
| CCOC(=O)C1(c2ccccc2)CCN(CCC(C#N)(c2ccccc2)c2ccccc2)CC1 | inconclusive: 0.891 µM [cytotoxic, single point] |
| CC[C@H]1C[C@@H]2C[C@H]3c4[nH]c5ccc(OC)cc5c4CCN(C2)[C@@H]13 | active: 31.6 µM |
| CC1CCCC(O)CC(=O)Cc2cc(O)cc(O)c2C(=O)O1 (stereo not given) | inactive |
| C[C@]12CC[C@H](OC3OC(CO)C(O)C(O)C3OC3OC(CO)C(O)C(O)C3O)C[C@@H]1CC[C@@H]1C2CC[C@]2(C)[C@@H](C3=CC(=O)OC3)CC[C@]12O (stereo not given in full) | inactive |
| CC(=O)O[C@@H]1[C@@H](O)[C@H]2O[C@@H]3C=C(C)[C@@H](O)C[C@]3(CO)[C@]1(C)[C@]21CO1 | active: 1.41 µM |
| COC1C(O)C(OC2CCC3(C=O)C(CCC4C3CCC3(C)C(C5=CC(=O)OC5)CCC43O)C2)OC(C)C1OC1OC(CO)C(O)C(O)C1O (stereo not given) | active: 3.55 µM |
| ClC1=C(Cl)[C@]2(Cl)[C@@H]3[C@@H]4C[C@@H]([C@H]5O[C@@H]45)[C@@H]3[C@@]1(Cl)C2(Cl)Cl | inconclusive: 14.1 µM [cytotoxic, full curve, poor fit] |
| CC(C)=CCN1CC[C@@]2(C)c3cc(O)ccc3C[C@@H]1[C@@H]2C | inconclusive: 22.4 µM [cytotoxic, partial curve, poor fit] |
| CCCCC(CC)COC(=O)c1ccccc1C(=O)OCC(CC)CCCC (stereo not given) | inconclusive: 28.2 µM [cytotoxic, partial curve, poor fit] |
| CC(C)Oc1cccc(NC(=O)c2ccccc2C(F)(F)F)c1 | active: 31.6 µM |

From PubChem BioAssay (NCATS)
